# Target: PP1α (Homo sapiens, UniProt P62136)
# Description: Analysis of the effect of 1H4 on the binding of the Tat RVxF sequence to PP1 using hybrid PP1 substrates containing a substrate phosphopeptide linked to RVxF-containing sequences derived from Tat or NIPP1 was undertaken. As the substrate phosphopeptide, a retinoblastoma protein-derived HIPR(pS)PYKFPSSPLR (SEQ ID NO: 1) peptide (pRb) was used that is efficiently dephosphorylated by PP1 but not by the enzymatically-related PP2A (Ammosova, T., et al., Protein Phosphatase-1 Activates CDK9 by Dephosphorylating Ser175. PLOS One, 2011. 6(4): p. e18985). The pRb peptide was linked to an extended RVxF-containing sequence derived from Tat (KKCCFHCQVCFITK, SEQ ID NO: 2) (pRb-Tat peptide) or the central domain of NIPP1 (KRKRKNSRVTFSED, SEQ ID NO: 3). Recombinant PP1α was assayed with pRb-Tat (WT or QACA mutant, 120 μM) in the absence or presence of 1H4 as indicated. The reactions were stopped at indicated time points and the phosphate release was quantified by malachite green assay. Initial velocity was calculated by linear regression in Prism. Recombinant PP1α was assayed with pRb-cdNIPP1 in the absence or presence of 1H4 as indicated. Mutant pRb cdNIPP1 pA-RATA was used as negative control. The reactions were stopped at indicated time points and the phosphate release was quantified by malachite green assay. Initial velocity was calculated by linear regression in Prism. The pRb-Tat peptide was efficiently dephosphorylated by PP1 in vitro (FIG. 4A, V0=0.31 μM·min^−1). […] Addition of 1H4 at 3-fold molar excess (480 μM) over pRb-Tat (160 μM) inhibited pRb-Tat dephosphorylation and reduced the rate of dephosphorylation (FIG. 4A, V0=0.19 μM·min^−1) to the rate of pRb-Tat QACA dephosphorylation (FIG. 4A, V0=0.17 μM·min^−1). […] To further investigate the effect of 1H4 on the dephosphorylation of the pRb-Tat peptide, the initial velocity versus pRb-Tat peptide substrate concentration plots was analyzed. […] The amount of the released phosphate was quantified with malachite green. […]
# PP1α, sequence (P62136 whole entry, the tested form may be a part): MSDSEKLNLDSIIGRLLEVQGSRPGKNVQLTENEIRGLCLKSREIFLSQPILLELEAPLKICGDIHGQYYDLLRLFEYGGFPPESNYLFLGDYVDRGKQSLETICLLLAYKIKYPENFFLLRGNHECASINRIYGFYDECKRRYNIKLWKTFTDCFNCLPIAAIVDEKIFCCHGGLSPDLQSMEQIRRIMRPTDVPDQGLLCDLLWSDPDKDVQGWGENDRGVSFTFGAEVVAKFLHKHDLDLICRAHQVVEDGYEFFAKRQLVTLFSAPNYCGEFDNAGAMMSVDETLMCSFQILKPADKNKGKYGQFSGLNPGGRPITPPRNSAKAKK
smiles,measurement,value
COCCNC(=O)OC(=O)c1c2c(nc3ccccc13)/C(=C\c1ccc(O)cc1)CCC2 [1H4],"effect on pRb-Tat dephosphorylation (Km, Vmax)",increasing Km but not Vmax
same,initial velocity V0 of pRb-Tat dephosphorylation by PP1α,0.19 μM·min^−1
same,initial velocity V0 of pRb-cdNIPP1 dephosphorylation by PP1α,0.37 μM·min^−1

# — patent publication US9447047B2 (priority 2012, dated 2016)
